Test results taken from patent US20060286641A1 (Regeneron, published 2006).

B1: R2-Fc (SEQ ID NO:8) (Fc fusion)
chain: RSISYDSPDYTDESCTFKISLRNFRSILSWELKNHSIVPTHYTLLYTIMSKPEDLKVVKNCANTTRSFCDLTDEWRSTHEAYVTVLEGFSGNTTLFSCSHNFWLAIDMSFEPPEFEIVGFTNHINVMVKFPSIVEEELQFDLSLVIEEQSEGIVKKHKPEIKGNMSGNFTYIIDKLIPNTNYCVSVYLEHSDEQAVIKSPLKCTLLPPGQESESAESA[… human IgG1 Fc with C220G (EU numbers) …]
notes: It describes Fc fusions as forming multimers (a dimer in a specific embodiment), but gives no copy number for the tested protein
B2: R2-R1-Fc (SEQ ID NO:6) (Fc fusion)
chain: RSISYDSPDYTDESCTFKISLRNFRSILSWELKNHSIVPTHYTLLYTIMSKPEDLKVVKNCANTTRSFCDLTDEWRSTHEAYVTVLEGFSGNTTLFSCSHNFWLAIDMSFEPPEFEIVGFTNHINVMVKFPSIVEEELQFDLSLVIEEQSEGIVKKHKPEIKGNMSGNFTYIIDKLIPNTNYCVSVYLEHSDEQAVIKSPLKCTLLPPGQESESAESAKRSKNLKSPQKVEVDIIDDNFILRWNRSDESVGNVTFSFDYQKTGMDNWIKLSGCQNITSTKCNFSSLKLNVYEEIKLRIRAEKENTSSWYEVDSFTPFRKAQIGPPEVHLEAEDKAIVIHISPGTKDSVMWALDGLSFTYSLVIWKNSSGVEERIENIYSRHKIYKLSPETTYCLKVKAALLTSWKIGVYSPVHCIKTTVENELPPPENIEVSVQNQNYVLKWDYTYANMTFQVQWLHAFLKRNPGNHLYKWKQIPDCENVKTTQCVFPQNVFQKGIYLLRVQASDGNNTSFWSEEIKFDTEIQAFLLPPVFNIRSLSDSFHIYIGAPKQSGNTPVIQDYPLIYEIIFWENTSNAERKIIEKKTDVTVPNLKPLTVYCVKARAHTMDEKLNKSSVFSDAVCEKTKPGNTS[… human IgG1 Fc with C220G (EU numbers) …]
notes: No copy number is stated for the tested protein (a dimer in a specific embodiment); also called parental R2-R1-Fc; R2 27-243-R1 28-436-Fc
B3: R2(35-233)-R1(28-335)-Fc (SEQ ID NO:9) (Fc fusion)
chain: RSTDESCTFKISLRNFRSILSWELKNHSIVPTHYTLLYTIMSKPEDLKVVKNCANTTRSFCDLTDEWRSTHEAYVTVLEGFSGNTTLFSCSHNFWLAIDMSFEPPEFEIVGFTNHINVMVKFPSIVEEELQFDLSLVIEEQSEGIVKKHKPEIKGNMSGNFTYIIDKLIPNTNYCVSVYLEHSDEQAVIKSPLKCTLLPPGRSKNLKSPQKVEVDIIDDNFILRWNRSDESVGNVTFSFDYQKTGMDNWIKLSGCQNITSTKCNFSSLKLNVYEEIKLRIRAEKENTSSWYEVDSFTPFRKAQIGPPEVHLEAEDKAIVIHISPGTKDSVMWALDGLSFTYSLVIWKNSSGVEERIENIYSRHKIYKLSPETTYCLKVKAALLTSWKIGVYSPVHCIKTTVENELPPPENIEVSVQNQNYVLKWDYTYANMTFQVQWLHAFLKRNPGNHLYKWKQIPDCENVKTTQCVFPQNVFQKGIYLLRVQASDGNNTSFWSEEIKFDTEIQAFLLPPSG[… human IgG1 Fc …]

What was measured:
human interferon β [1] = target: T1, human interferon β (human, UniProt P01574 22-187); experiment: SPR (Biacore), fusion protein captured by anti-human Fc, interferon injected
T1 construct: also called IFNβ; IFN-β

human interferon β [2] = target: T1, human interferon β; experiment: cell-based or functional assay

Row | Binder | Kd (human interferon β [1]) | IC50, ISRE-luciferase assay in HEK 293 cells, 50 pM ligand (human interferon β [2])
1 | B1 | 8.3 nM | 5.48e-08 M
2 | B2 | 0.0399 nM | 8.31e-11 M
3 | B3 | 0.00829 nM | 
